Structures are written as SMILES. Screen size: about 310,000 compounds; about 14,000 (4.5%) showed an effect of 50% or more. Effects have a minus sign here. Some of the results follow.
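Further: peak tail current of the secondary pulse compared with the same well before compound.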

Sequence of human ether-à-go-go-related gene (hERG) potassium channel (Q12809 whole entry, looked up): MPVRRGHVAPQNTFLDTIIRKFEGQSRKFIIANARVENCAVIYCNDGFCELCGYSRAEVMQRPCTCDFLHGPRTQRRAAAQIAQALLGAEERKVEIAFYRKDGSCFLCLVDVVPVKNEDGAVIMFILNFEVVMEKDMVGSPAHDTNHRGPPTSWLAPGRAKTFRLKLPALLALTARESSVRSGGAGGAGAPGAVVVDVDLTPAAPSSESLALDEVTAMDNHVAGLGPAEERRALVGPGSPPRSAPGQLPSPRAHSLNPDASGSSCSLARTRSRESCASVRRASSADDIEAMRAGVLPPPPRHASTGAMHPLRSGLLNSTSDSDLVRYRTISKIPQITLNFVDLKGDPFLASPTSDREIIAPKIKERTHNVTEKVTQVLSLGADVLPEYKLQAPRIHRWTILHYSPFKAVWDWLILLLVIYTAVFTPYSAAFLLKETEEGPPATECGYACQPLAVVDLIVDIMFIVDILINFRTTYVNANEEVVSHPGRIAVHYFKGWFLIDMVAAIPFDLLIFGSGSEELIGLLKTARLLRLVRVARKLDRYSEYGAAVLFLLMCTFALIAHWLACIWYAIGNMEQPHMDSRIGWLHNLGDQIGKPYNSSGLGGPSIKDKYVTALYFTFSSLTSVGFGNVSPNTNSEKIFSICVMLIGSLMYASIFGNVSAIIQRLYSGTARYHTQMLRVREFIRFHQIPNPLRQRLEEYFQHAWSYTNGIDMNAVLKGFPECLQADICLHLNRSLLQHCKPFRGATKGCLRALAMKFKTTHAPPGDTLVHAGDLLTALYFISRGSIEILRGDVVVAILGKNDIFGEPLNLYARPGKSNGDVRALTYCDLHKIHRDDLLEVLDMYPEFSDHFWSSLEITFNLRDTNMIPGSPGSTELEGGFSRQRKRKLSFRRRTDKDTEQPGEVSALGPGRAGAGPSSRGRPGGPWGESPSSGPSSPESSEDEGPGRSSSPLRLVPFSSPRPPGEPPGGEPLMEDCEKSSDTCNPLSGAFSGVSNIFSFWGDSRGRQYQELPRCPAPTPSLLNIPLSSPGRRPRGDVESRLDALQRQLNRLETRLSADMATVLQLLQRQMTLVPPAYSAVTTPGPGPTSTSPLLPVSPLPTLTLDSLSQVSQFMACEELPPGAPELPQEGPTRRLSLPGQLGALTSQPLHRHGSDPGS

The assay addresses human ether-à-go-go-related gene (hERG) potassium channel (human, UniProt Q12809). The assay can be described thus: primary screen, population patch clamp on CHO cells stably expressing hERG.
Regarding `CC(C)C(OC(=O)CN1C(=O)c2ccccc2C1=O)C(=O)NC1CCCCC1` (stereo not shown), the “hERG current change (%, negative = inhibition) at 10uM” value was determined as 17.5%. The value for `Cn1c(C(=O)NCc2ccc3c(c2)OCO3)cc2sccc21` was -17.9%; that for `CCN(CC)S(=O)(=O)c1cc(NC(=O)CCNC(=O)c2ccccc2Cl)ccc1C` was -11.5%; that for `Cc1ccc(SCC(=O)OCC(=O)N(CC(C)C)C2CCS(=O)(=O)C2)cc1C` (stereo not shown) was -4.29%. With `CCCCC1=CC2=CC(=O)C(C)(OC(=O)CC)C(=O)C2=CN1CCN1CCOCC1` (stereo not shown) the figure was -11.7%; with `Cn1c(Cc2ccccc2)nnc1SCC(=O)c1cccs1`, 9.78%; with `CN(C)C(=O)c1coc2nc3ccccc3nc12`, -1.35%. Take `Cc1cccc(N(C)Cc2nnc(-c3cccc(Br)c3)o2)c1`: the “hERG current change (%, negative = inhibition) at 10uM” value is on record as 20.6%. Regarding `Cc1nc(NC(=O)/C=C/c2ccccc2)sc1C(=O)N1CCCCC1`, the “hERG current change (%, negative = inhibition) at 10uM” value was 3.2%. With `CC1(OC(=O)c2ccc(Cl)nc2)C(=O)C=C2C=C3CCCN3C=C2C1=O` (stereo not shown) the figure was 15.8%.

Turning to `Cc1cc(N2CCOCC2)nc2ccccc12`, the “hERG current change (%, negative = inhibition) at 10uM” value is listed as -3.24%. In the case of `O=C(Nc1ccccc1C(F)(F)F)c1ccccn1`, the “hERG current change (%, negative = inhibition) at 10uM” value is -4.16%. On to `COc1ccc(OC)c(CN2CCC(CO)(CCOc3ccccc3)CC2)c1`, for which the “hERG current change (%, negative = inhibition) at 10uM” value was -76.2%. `O=C(NCCCNC(=O)c1cnccn1)c1ccc(Br)cc1`: the “hERG current change (%, negative = inhibition) at 10uM” value is reported as -11.8%. Take `CCOC(=O)c1ccc(NC(=S)Nc2cccc(C)n2)cc1`: the “hERG current change (%, negative = inhibition) at 10uM” value was found to be 19%. As to `Br.CCn1c(=N)n(CC(=O)C(C)(C)C)c2ccccc21`, the “hERG current change (%, negative = inhibition) at 10uM” value is reported as -21.1%.

Take `O=C(Cn1cnc(Cl)c1Cl)c1ccc(F)cc1`: the “hERG current change (%, negative = inhibition) at 10uM” value is on record as 6.34%. The value for `CSC1=N/C(=C\c2cccc(F)c2)C(=O)S1` was 15.3%; that for `O=c1[nH]c(=O)n(Cc2ccccc2)c2nc(-c3ccc(Oc4ccc(F)cc4)c([N+](=O)[O-])c3)n(CCO)c12` was -30.7%; that for `COC(=O)c1c(NC(=O)CSc2nnc(CNc3ccc(Cl)cc3)o2)sc(C)c1C` was 2.46%. As for `CSCC[C@H](NC(=O)[C@H]1N2C(=O)c3ccccc3C2SC1(C)C)C(=O)NCc1ccncc1` (stereo partly shown), the “hERG current change (%, negative = inhibition) at 10uM” value is recorded as -11.6%. With `COc1cccc(C2c3[nH]c4ccccc4c3C[C@H]3C(=O)N(CCCO)CC(=O)N23)c1OC` (stereo partly shown) the figure was -6.83%. As for `COc1ccc(NC(=O)C2CCCN(C(=O)Nc3ccc(OC)cc3)C2)cc1` (stereo not shown), the “hERG current change (%, negative = inhibition) at 10uM” value was -19%. For `Cc1ccc(C(=O)COC(=O)CN2C(=O)C3CC=CCC3C2=O)cc1[N+](=O)[O-]` (stereo not shown), the “hERG current change (%, negative = inhibition) at 10uM” value amounted to 8.4%. With `CCOc1ccccc1NC(=O)C12CC3CC(C1)CC(c1ccc(C)cc1)(C3)C2` the figure was -5.02%; with `Cc1ccc2[nH]c(C(=O)N/N=C/c3ccc([N+](=O)[O-])cc3)c(C)c2c1`, 18.5%. Consider `CN(CC(=O)Nc1ccc(Cl)cc1)C(=O)CNC(=O)Cc1cccc2ccccc12`, for which the “hERG current change (%, negative = inhibition) at 10uM” value is reported as 20.1%.

As for `CC1(C)CC(=O)C(C2C3=C(CC(C)(C)CC3=O)Oc3c(Br)cc(Br)cc32)=C(O)C1` (stereo not shown), the “hERG current change (%, negative = inhibition) at 10uM” value is reported as -31.8%. As to `Cc1cccc(C(=O)N2CCN=C2SCc2ccc([N+](=O)[O-])cc2)c1`, the “hERG current change (%, negative = inhibition) at 10uM” value was -51.9%. In the case of `N/C(=N\OC(=O)c1ccc2c(c1)OCO2)c1ccncc1`, the “hERG current change (%, negative = inhibition) at 10uM” value is -5.11%.

With `COc1cccc(CN(C(=O)c2ccco2)C2CCS(=O)(=O)C2)c1` (stereo not shown), the “hERG current change (%, negative = inhibition) at 10uM” value is reported as 2.91%. With `COc1cccc(OCC(=O)NNC(=O)C(=O)Nc2ccc(OC)cc2OC)c1` the figure was 16.1%. With `O=c1c(Cc2ccc(F)cc2)c(O)ccn1C1CCCCC1` the figure was -4.15%. Turning to `CC(C)c1ccc(CNC(=O)CCc2ccccc2)cc1`, the “hERG current change (%, negative = inhibition) at 10uM” value is -7.2%. With `CCCN(CC1CC1)C(=S)NC(=O)C1CC1` the figure was 19.4%. In the case of `COc1ccc(C2C(C(=O)NCCN(C)C)c3cc(OC)c(OC)cc3C(=O)N2C)cc1OC` (stereo not shown), the “hERG current change (%, negative = inhibition) at 10uM” value is reported as -1.57%. In the case of `COc1ccc(-c2nc(NC(=O)CSc3nnc(C)s3)ns2)cc1`, the “hERG current change (%, negative = inhibition) at 10uM” value is listed as -2.08%. With `CC(C)CCNC(=O)c1c[nH]c2ccc(S(=O)(=O)N3CCC4(CC3)OCCO4)cc2c1=O`, the “hERG current change (%, negative = inhibition) at 10uM” value is recorded as 2.95%.

For the compound `COc1ccc(N2CCCn3c2nc2c3c(=O)n(CCc3ccccc3)c(=O)n2C)cc1`, the “hERG current change (%, negative = inhibition) at 10uM” value is recorded as -7.83%. The value for `Cc1ccc(C2CC2c2n[nH]c(=S)n2-c2ccc(C)cc2)cc1` (stereo not shown) was 5.33%; that for `Cn1ncc(Cl)c1C(=O)N1CCC2(CC1)OCCO2` was -4.02%. For the compound `CC(=O)NC[C@H]1CN(c2ccc(N3CCOCC3)c(F)c2)C(=O)O1`, the “hERG current change (%, negative = inhibition) at 10uM” value is recorded as -2.63%. With `Cc1c(N2C(=O)c3cccc4cccc(c34)C2=O)cnn1C` the figure was 6.55%.

Regarding `O=C(CSc1ccc(-c2cccs2)nn1)c1cccs1`, the “hERG current change (%, negative = inhibition) at 10uM” value was -15.2%. Regarding `O=C1CN=C(c2ccc[nH]2)c2cc(Cl)ccc2N1`, the “hERG current change (%, negative = inhibition) at 10uM” value is -16%. As for `Cc1cccc(-c2nc(CN3CCCC(C(=O)NC4CCCCCC4)C3)c(C)o2)c1` (stereo not shown), the “hERG current change (%, negative = inhibition) at 10uM” value is -69.8%.

With `COc1ccc(-c2csc(N(CCCN(C)C)C(=O)c3ccccc3F)n2)cc1.Cl`, the “hERG current change (%, negative = inhibition) at 10uM” value is reported as -35.3%. As for `Cc1nc2ccccc2n1CC(=O)N/N=C\c1ccccn1`, the “hERG current change (%, negative = inhibition) at 10uM” value is 6.22%. As to `CC1CCCCN1S(=O)(=O)c1ccc(S(=O)(=O)N2CCCC2)cc1` (stereo not shown), the “hERG current change (%, negative = inhibition) at 10uM” value was 5.9%. Regarding `CCOC(=O)C1CCN(C(=O)c2cc3cc(Cl)ccc3[nH]2)CC1`, the “hERG current change (%, negative = inhibition) at 10uM” value is listed as -36.6%. Turning to `Cc1ccc(OCCNC(=O)c2cccc(Oc3ccc(C(F)(F)F)cc3[N+](=O)[O-])c2)cc1`, the “hERG current change (%, negative = inhibition) at 10uM” value worked out at 10.2%. With `Cc1c(NC(=S)NC(=O)c2ccccc2Cl)c(=O)n(-c2ccccc2)n1C` the figure was 33.4%; with `O=C(Nc1ccon1)c1ccc(OC2CCCC2)cc1`, -2.03%. `Cc1ccc(C2SCC(=O)N2c2ccccc2)cc1` (stereo not shown): the “hERG current change (%, negative = inhibition) at 10uM” value was 6.94%. The value for `Oc1ccc2oc3c(c2c1C=NCc1ccncc1)CCCC3` was 8.88%; that for `Cc1ccc(OCC(=O)Nc2nnc(S(=O)(=O)N3CCC(C)CC3)s2)cc1` was 19.2%; that for `COc1ccc(C)cc1NC(=O)CSc1nnc(-c2ccccn2)n1Cc1ccco1` was -15.8%.

Regarding `Cc1cc(Cl)c(OCCn2ccnc2)c(Br)c1.O=C(O)C(=O)O`, the “hERG current change (%, negative = inhibition) at 10uM” value is reported as -5.31%. The value for `O=C(O)c1ccc(S(=O)(=O)c2ccc3c(c2)C(=O)N(NC(=O)c2ccccc2)C3=O)cc1` was 24.3%.

For `O=C(C(Cc1ccccc1)n1cccc1)N1CCN(c2ncccn2)CC1` (stereo not shown), the “hERG current change (%, negative = inhibition) at 10uM” value was 3.52%. In the case of `COCCn1c(=S)[nH]c2cc(OC)c(OC)cc2c1=O`, the “hERG current change (%, negative = inhibition) at 10uM” value worked out at 11%.

Regarding `COc1cc(C(=O)NCc2ccc3[nH]c(C)cc3c2)cc(OC)c1OC`, the “hERG current change (%, negative = inhibition) at 10uM” value was 34.9%. As for `O=c1c2cc(Cl)ccc2nc(-c2ccc(Cl)c(Cl)c2)n1O`, the “hERG current change (%, negative = inhibition) at 10uM” value stood at 17.2%. As to `COc1cccc(S(=O)(=O)NCC(=O)Nc2ccc(C(C)(C)C)cc2)c1`, the “hERG current change (%, negative = inhibition) at 10uM” value is on record as -3.85%. With `O=C(COC(=O)Cc1ccc(Cl)cc1)NCCc1ccccc1` the figure was 8.03%. The value for `CC(C)Oc1ccc(C2NC(=O)NC2=O)cc1` (stereo not shown) was 30.4%; that for `CC(Oc1ccc(Br)cc1)C(=O)Nc1ccncc1` (stereo not shown) was -23.2%; that for `COc1c(O[C@@H]2O[C@H](CO)[C@@H](O)[C@H](O)[C@H]2O)cc2c(c1OC)-c1ccc(SC)c(=O)cc1C(NC(C)=O)CC2` (stereo partly shown) was 1.61%. Regarding `Cc1ccc(S(=O)(=O)N2CCN(C(=O)COC(=O)C3CCC3)CC2)cc1`, the “hERG current change (%, negative = inhibition) at 10uM” value is -0.624%.

Regarding `O=c1[nH]c2c(n(C3CCCCC3)c1=O)CCC2`, the “hERG current change (%, negative = inhibition) at 10uM” value is reported as -13.6%.

Turning to `COc1cc(/C=C2\SC(=S)N(NS(=O)(=O)c3ccccc3)C2=O)ccc1O`, the “hERG current change (%, negative = inhibition) at 10uM” value is -4.08%. The value for `O=C(CCc1c[nH]c2ccccc12)N=Nc1c(O)[nH]c2ccccc12` was 10.6%; that for `Cc1cc(NC(=O)CSCC(=O)OCC(=O)c2cccc(Br)c2)no1` was 0.888%. Turning to `Cc1ccc(-c2nnc(SCC(=O)N/N=C/c3c(C)nn(-c4ccccc4)c3C)n2-c2ccccc2)cc1`, the “hERG current change (%, negative = inhibition) at 10uM” value is -2.1%. Turning to `Cc1ccc(-c2cn3c(n2)CCCC3)cc1.Cl`, the “hERG current change (%, negative = inhibition) at 10uM” value was -21.7%. With `O=C(C[n+]1ccccc1)Nc1c(Cl)cc(Cl)cc1Cl.[Cl-]` the figure was 13.1%; with `CC(=O)c1ccc2noc(-c3cccc(C)c3)c2c1`, -12.3%.

On to `O=C(CCNS(=O)(=O)c1cccc2nsnc12)NCCc1ccccc1`, for which the “hERG current change (%, negative = inhibition) at 10uM” value is -4.18%. For `O=C(NCc1ccco1)c1ccc(Cl)cc1[N+](=O)[O-]`, the “hERG current change (%, negative = inhibition) at 10uM” value is -0.845%. The value for `O=C(c1cc2cc(Br)ccc2[nH]1)N1CCc2ccccc21` was 14%; that for `Cc1cccc2nc(CNC(=O)CC3C(=O)NCCN3Cc3cccc(F)c3)cn12` (stereo not shown) was 0.146%. The value for `CN(CCO)c1nc(N)c(C#N)c(CC#N)c1C#N` was 7.36%; that for `CCOC(=O)CSc1nnc(-c2ccc(S(=O)(=O)N3CCOCC3)cc2)n1-c1ccccc1` was 19.5%. With `COc1ccccc1C1CCN(Cc2ccc(Cl)cc2Cl)CC1` the figure was 11.1%; with `Cc1ccc(C(=O)NCCc2csc(-c3cccnc3)n2)cc1`, 7.66%.

Turning to `CC/C(=N\NC(=O)c1ccc(N2CCCC2=O)cc1)c1ccccc1`, the “hERG current change (%, negative = inhibition) at 10uM” value is recorded as -0.274%.

For `CCCCN(C(=O)CNC(=O)c1cccs1)C(C(=O)NC1CCCCC1)c1cccnc1` (stereo not shown), the “hERG current change (%, negative = inhibition) at 10uM” value was -5.69%. Regarding `O=C(Nc1cccc(Cl)c1)N1CCCC1`, the “hERG current change (%, negative = inhibition) at 10uM” value is 5.7%.

The values above are taken from article PMC4336329 (PLoS ONE, 2015).
